The supplement of paper PMC3334620
Whole data set: some 33,000 sequences, median “E-score (-0.5 to 0.5)” near -0.017, cut for the highest 2% near 0.3. This is one part of the list.

Target: T1, Sut1 (UniProt P53032)
T1 sequence: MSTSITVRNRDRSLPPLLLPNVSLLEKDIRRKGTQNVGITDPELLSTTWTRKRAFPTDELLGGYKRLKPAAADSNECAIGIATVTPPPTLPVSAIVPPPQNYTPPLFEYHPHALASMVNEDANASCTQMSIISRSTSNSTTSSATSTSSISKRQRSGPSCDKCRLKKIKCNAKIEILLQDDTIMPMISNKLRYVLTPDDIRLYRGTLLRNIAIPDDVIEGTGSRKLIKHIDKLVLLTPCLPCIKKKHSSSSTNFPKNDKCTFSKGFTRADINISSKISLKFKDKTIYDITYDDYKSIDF
Experiment: PBM E-score (8-mer binding enrichment) (E-score (-0.5 to 0.5)); higher = stronger / more preferred TF binding; most listed sequences are background and not binding sites
Conditions: protein concentration: 200 nM; construct: GST-full length
In short: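 E-scores (a modified Wilcoxon-Mann-Whitney statistic) were assigned by the Universal PBM Analysis Suite to every ungapped eight-base word pooled with its reverse complement. The input came from universal all-10-mer Agilent arrays made double-stranded by primer extension and probed with GST-tagged yeast transcription factors at about 100-200 nM. Fluorescent anti-GST detected bound protein, and masliner normalised the scans.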

Sequence	PBM E-score
GCAATCGA	-0.0369
ATCCTCAA	-0.0483
CAGCCGCA	-0.257
ACCTTTGA	0.0359
CTCGTTGA	-0.0496
TCCAATCA	-0.0517
AAATTAGA	0.182
CCATGTGA	-0.182
CACCGGAA	0.361
GAAAGTCC	0.326
ATTGACAG	-0.029
GAATTCAC	0.0262
GTATCCAA	-0.00514
GGAGGACC	-0.0788
TATTGGGA	0.103
AGATTTTA	0.161
AGACTCAG	-0.172
AGGACTGC	-0.334
CCCGATTA	0.119
CACCGATG	-0.0699
CTTCGGGC	-0.277
GGTACTAC	0.0945
GCGAAGCA	-0.0654
AGTGGCAT	-0.231
CCACTAAG	-0.0452

Sequence	PBM E-score
CGCAGTTC	0.0497
AGTAGCCC	-0.115
CGGACTAA	0.454
AGTTTTGC	0.237
AGGGATGG	-0.112
TAGCTAAA	0.0954
GGGAAGAC	-0.21
ACGACGCA	0.172
AATCCCCA	-0.171
CACACCAG	-0.21
CTGCACAG	-0.0731
CCGGAGAC	0.328
ACAGACCA	-0.0212
ATAGAACC	-0.0264
CAGAGGAC	-0.157
ACTAGTAT	0.22
GTGGGCGA	-0.14
GTATTCGA	-0.143
ACGGATCT	0.08
CCATGAAA	0.109
CTAGCCAC	-0.328
GCGTTGTA	0.0819
ACTGAAAA	0.202
ATCACCAG	-0.0754
GGTAGTCA	-0.176

Sequence	PBM E-score
CGCGGATA	0.187
ACGCCTCG	-0.115
CTTAGCTA	-0.0175
CTTCTCTC	-0.0216
TAAAGAAA	0.301
AGCTACGC	-0.142
ACGAACGC	0.101
ACGTTAGG	-0.1
AGTAGCAC	-0.176
TCATGGAA	0.0642
GGAACTCA	-0.0534
ACATGGGT	-0.0432
TCATAGGA	0.131
AAGGATAG	0.239
CTGACCGC	-0.114
ACAAGGGT	0.00132
AAAGTGAT	0.188
CACATTAA	0.133
TAGATCAA	0.069
CAATCTGG	-0.132
GATACCCA	-0.0714
AACGCTCC	-0.165
GACCCACC	-0.133
ACTAAAGC	0.0875
GCACGATA	0.0354

Sequence	PBM E-score
AAAGCGTA	-0.00747
ACCTCTCT	-0.237
ATCAGGCA	-0.0421
GCATGTAA	-0.126
AGCCTGAC	-0.0975
AAACAGCC	0.0135
ATGATTGG	0.112
GCTACGAA	-0.0184
ACTCATCC	0.023
CATACCTC	-0.0271
CACGTATA	0.154
CGTCCGGA	0.27
ACGTCTAT	-0.0918
CCTGGGCA	-0.221
ATTAAGCG	-0.00022
CATCGGAC	0.37
AGCTATGA	0.0408
AAATCTGA	0.0938
GCGGTGAA	-0.0961
TAACCTCA	0.0853
GGCAAACC	-0.0821
AGCGTTCA	-0.184
CCATCAAG	-0.155
ACCATCCA	-0.121
AGAAAACG	0.112

Sequence	PBM E-score
GGACTCCA	0.178
CCCCATGA	-0.145
CCGACACA	-0.0787
ATTATATA	0.337
AGGCCGCA	-0.245
CGATATCA	0.0495
GCCGGTGA	-0.00679
AATCGCCG	0.0778
CACCGTCC	-0.21
ACTGTTCA	-0.0168
AGGTCCAT	0.0646
CACTCACA	-0.118
TCGCTAAA	-0.0213
AACGCAGC	-0.0953
AAGGTAGT	-0.0208
AAGCGACA	-0.123
CGCTTGAG	0.0364
AGGAACTC	0.0307
GACACATA	0.133
AGTAACGA	0.196
AATTTCGT	0.168
AGATAAAA	0.237
ACGTATGG	-0.0677
ACTGTCTA	-0.0775
ACTTCAAG	0.0849

Sequence	PBM E-score
AGGGCAAG	-0.0991
ATACGATG	0.206
AACAGGGG	-0.102
GCTTCGCA	-0.197
GAGCGAGC	-0.127
ATGAACAC	0.0355
ACGAAAAT	0.177
GCAAAGAA	0.0524
AAAAATTT	0.281
CACAGCCC	-0.344
GTGAAGGA	-0.00442
CAAACCGA	-0.0148
ACAATAGG	0.13
ACCAGAGG	-0.258
AATGCATA	0.0656
AATAAAGA	0.262
AGCGGTAA	0.0362
ACTATACG	0.122
AGTTAGCA	0.0541
ATAGGCAC	-0.198
ATCGTGGG	-0.0771
AGCCCGAT	0.0163
TGTCCCAA	-0.0997
CGTATCTC	0.093
ATAGTCTG	-0.0537

Sequence	PBM E-score
AGTGCGAG	-0.088
AGAGGCCA	-0.167
GACTCCTC	0.0705
CCGGGATC	-0.0467
TCGTCTAA	-0.0384
GACAGGGC	-0.368
ATAGCGAG	0.068
GACTGGGA	-0.0219
AGGTCAAA	-0.0588
CTCGTCGC	-0.198
ACTCAGCA	-0.138
CTCCCAAC	-0.209
AAGAGTGA	-0.0722
TCTCCAGA	-0.212
CTACCAAA	0.138
AGAACACT	0.00366
GCGTCATA	0.0968
GGTTGCTA	-0.0336
ACCTGTGC	-0.232
GTCTTCGA	-0.00848
CGAGTGAG	0.0764
AGAAAGTC	0.232
